The target of assay [1] is endogenous CUL5 (human (endogenous in HEK293, MIA PaCa-2, A549, Hep3B, PLC/PRF/5)) (UniProt Q93034). In words: co-IP; endogenous IP with anti-CUL5 antibody (normal mouse IgG as control) and protein G sepharose from lysates of MIA PaCa-2, A549, Hep3B and PLC/PRF/5 cells; in some panels siRNA to APC11 or SAG for 72 h.
Assay [2] concerns the target FLAG-CUL5 (UniProt Q93034). Briefly: co-IP; FLAG antibody-conjugated beads, 3 h, lysates of transfected HEK293 cells (50 mM Tris pH 7.5, 0.15 M NaCl, 1% NP-40, 0.1% SDS, 0.5% sodium deoxycholate, 1 mM EDTA, 1 mM DTT); endogenous prey detected by immunoblot; in some panels 1 µM MLN4924 for 12 h, siRNA to APC11, or co-transfected MYC-CUL5.
For assay [3], the target named is FLAG-CUL5-C (aa 385-780) (UniProt Q93034). Described as above.
Assay [4] deals with FLAG-SAG (UniProt Q9UBF6). Described as above.
Assay [5] has as its target endogenous ITCH (human (endogenous in HEK293, Hep3B, PLC/PRF/5, HeLa)) (UniProt Q96J02). In words: co-IP; endogenous IP with anti-ITCH antibody (normal rabbit IgG as control) and protein G sepharose from lysates of Hep3B and PLC/PRF/5 cells.
Assay [6] addresses FLAG-APC11 (UniProt Q9NYG5). Briefly: co-IP; FLAG antibody-conjugated beads, 3 h, lysates of transfected HEK293 cells (50 mM Tris pH 7.5, 0.15 M NaCl, 1% NP-40, 0.1% SDS, 0.5% sodium deoxycholate, 1 mM EDTA, 1 mM DTT); endogenous prey detected by immunoblot; in some panels 1 µM MLN4924 for 12 h, siRNA to APC11, or co-transfected MYC-CUL5. (Immunoblotting shows a protein as a band on a membrane.)

Sequences of proteins named here, by UniProt entry; tags and fusion partners are left off. A change or cut given only in a name is not applied to a line headed by its entry. A line that says so, or that is headed by a name, gives the form on record, which may keep a tag or linker. Residues count along the entry.
UniProt Q93034: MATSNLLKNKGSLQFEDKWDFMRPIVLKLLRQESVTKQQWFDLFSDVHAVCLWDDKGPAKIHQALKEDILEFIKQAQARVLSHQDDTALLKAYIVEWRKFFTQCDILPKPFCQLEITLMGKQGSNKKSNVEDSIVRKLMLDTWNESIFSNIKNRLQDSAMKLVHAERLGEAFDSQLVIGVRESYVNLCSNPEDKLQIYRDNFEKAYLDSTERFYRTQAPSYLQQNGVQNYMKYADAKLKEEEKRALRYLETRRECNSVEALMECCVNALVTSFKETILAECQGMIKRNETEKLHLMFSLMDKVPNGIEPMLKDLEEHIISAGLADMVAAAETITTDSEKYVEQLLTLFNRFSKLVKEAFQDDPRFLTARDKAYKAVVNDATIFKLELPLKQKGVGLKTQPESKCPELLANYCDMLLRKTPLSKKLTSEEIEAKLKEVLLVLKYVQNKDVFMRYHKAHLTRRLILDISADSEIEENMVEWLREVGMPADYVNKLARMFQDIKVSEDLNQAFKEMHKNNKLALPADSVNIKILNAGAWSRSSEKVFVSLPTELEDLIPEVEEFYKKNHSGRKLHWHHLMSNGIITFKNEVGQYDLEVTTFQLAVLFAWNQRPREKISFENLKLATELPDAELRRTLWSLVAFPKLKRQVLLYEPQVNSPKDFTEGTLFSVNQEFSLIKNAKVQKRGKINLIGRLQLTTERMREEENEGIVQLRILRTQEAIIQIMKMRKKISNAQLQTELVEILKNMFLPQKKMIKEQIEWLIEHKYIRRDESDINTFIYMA
FLAG-CUL5-N (aa 1-400): residues 1-400 of Q93034
FLAG-CUL5-C (aa 385-780): residues 385-780 of Q93034
FLAG-CUL5-ΔSAG (deletion of aa 565-582) (Q93034, form named): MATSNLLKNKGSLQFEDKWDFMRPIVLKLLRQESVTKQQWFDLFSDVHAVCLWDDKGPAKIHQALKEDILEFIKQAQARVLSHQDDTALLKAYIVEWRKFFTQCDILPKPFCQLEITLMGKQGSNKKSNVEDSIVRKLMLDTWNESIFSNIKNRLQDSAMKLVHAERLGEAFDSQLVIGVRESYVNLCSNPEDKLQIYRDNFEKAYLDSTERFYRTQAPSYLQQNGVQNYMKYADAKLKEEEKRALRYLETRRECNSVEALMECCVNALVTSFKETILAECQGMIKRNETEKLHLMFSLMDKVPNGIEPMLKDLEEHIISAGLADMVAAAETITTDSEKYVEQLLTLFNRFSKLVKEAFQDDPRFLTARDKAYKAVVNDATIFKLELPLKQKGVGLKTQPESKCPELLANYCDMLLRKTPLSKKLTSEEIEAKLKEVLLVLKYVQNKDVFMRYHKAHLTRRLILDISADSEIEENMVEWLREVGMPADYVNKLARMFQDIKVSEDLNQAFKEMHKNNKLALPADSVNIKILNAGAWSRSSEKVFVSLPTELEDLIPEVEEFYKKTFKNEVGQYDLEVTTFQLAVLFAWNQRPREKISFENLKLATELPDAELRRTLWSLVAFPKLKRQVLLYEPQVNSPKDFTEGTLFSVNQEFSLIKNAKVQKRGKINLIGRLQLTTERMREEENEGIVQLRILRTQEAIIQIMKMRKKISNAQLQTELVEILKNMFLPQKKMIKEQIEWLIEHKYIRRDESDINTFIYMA
UniProt Q9UBF6: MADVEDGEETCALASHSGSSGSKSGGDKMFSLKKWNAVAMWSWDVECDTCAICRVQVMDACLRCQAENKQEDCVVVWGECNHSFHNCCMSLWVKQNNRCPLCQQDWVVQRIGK
UniProt Q96J02: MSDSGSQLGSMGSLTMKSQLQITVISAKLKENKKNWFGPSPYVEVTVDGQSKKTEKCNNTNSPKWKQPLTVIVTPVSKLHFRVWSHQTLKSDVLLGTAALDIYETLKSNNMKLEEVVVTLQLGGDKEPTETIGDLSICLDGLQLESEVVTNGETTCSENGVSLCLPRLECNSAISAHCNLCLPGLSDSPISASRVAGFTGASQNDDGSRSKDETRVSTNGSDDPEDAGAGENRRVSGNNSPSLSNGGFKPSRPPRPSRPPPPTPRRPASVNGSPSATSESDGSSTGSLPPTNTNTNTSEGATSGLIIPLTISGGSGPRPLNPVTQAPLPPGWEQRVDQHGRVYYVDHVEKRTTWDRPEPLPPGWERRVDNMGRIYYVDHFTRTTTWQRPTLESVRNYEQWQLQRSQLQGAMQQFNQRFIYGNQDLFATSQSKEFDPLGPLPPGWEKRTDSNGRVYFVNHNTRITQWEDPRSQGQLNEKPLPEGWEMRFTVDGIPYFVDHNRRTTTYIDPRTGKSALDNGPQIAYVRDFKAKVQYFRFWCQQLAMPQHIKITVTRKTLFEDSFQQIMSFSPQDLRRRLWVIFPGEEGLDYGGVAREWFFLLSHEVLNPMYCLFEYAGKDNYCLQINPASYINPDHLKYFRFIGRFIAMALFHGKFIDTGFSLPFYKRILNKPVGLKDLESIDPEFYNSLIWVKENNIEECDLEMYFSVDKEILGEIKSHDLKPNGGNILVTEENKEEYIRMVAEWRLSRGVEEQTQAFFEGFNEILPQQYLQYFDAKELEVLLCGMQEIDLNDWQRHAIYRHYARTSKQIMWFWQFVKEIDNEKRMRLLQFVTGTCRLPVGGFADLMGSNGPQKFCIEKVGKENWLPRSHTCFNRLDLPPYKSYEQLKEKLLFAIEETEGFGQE
UniProt Q9NYG5: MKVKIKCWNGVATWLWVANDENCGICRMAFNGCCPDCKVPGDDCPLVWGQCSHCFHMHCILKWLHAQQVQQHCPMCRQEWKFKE
UniProt Q92905: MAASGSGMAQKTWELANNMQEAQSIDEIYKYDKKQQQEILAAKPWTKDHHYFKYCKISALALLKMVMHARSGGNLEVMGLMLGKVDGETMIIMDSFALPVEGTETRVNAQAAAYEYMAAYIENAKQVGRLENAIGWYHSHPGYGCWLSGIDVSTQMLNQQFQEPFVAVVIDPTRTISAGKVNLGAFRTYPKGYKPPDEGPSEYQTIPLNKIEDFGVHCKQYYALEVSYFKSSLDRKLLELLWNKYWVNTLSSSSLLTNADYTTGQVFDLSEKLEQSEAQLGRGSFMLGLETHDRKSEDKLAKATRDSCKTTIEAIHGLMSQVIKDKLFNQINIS
UniProt Q86VP6: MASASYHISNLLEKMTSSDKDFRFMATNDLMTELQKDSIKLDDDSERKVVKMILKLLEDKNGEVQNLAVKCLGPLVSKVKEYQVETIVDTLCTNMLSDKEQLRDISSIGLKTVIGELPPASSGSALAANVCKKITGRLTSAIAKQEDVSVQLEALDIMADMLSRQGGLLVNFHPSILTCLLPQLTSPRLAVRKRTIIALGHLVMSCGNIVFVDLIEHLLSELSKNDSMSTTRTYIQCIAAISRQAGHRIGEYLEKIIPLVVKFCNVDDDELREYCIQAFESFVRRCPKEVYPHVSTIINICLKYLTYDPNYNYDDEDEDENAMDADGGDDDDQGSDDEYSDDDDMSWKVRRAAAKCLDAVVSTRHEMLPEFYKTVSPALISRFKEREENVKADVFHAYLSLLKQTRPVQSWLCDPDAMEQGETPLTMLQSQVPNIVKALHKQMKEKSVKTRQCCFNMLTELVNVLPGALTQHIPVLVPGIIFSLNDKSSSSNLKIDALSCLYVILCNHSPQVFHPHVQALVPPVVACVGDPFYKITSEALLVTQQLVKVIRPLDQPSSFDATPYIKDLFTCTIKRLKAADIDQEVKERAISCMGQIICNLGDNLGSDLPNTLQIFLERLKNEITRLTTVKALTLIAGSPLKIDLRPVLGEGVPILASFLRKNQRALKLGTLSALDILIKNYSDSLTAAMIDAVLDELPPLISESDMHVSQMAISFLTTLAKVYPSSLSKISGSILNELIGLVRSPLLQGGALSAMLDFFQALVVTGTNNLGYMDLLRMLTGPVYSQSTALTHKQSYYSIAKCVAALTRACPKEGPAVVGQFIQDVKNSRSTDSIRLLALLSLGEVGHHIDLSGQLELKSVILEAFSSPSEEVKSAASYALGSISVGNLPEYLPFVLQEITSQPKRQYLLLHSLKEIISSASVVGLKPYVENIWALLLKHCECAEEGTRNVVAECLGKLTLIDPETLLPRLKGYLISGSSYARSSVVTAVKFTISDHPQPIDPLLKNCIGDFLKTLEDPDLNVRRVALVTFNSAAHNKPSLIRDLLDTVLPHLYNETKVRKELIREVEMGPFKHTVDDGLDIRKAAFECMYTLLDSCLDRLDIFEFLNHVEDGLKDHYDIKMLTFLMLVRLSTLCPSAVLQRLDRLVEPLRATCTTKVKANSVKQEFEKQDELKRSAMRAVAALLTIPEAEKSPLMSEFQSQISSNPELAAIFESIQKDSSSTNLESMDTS

Assay [7] deals with FLAG-APC11 I5A (UniProt Q9NYG5). The description is as above.
For assay [8], the target named is FLAG-APC11 V3A (UniProt Q9NYG5). Described as above.
In assay [9] the target is FLAG-APC11 W14A (UniProt Q9NYG5). The assay is described as above.
Assay [10] addresses FLAG-APC11 W8A (UniProt Q9NYG5). The description is as above.
Assay [11] addresses FLAG-CUL5 (UniProt Q93034). Briefly: co-IP; FLAG antibody-conjugated beads, 3 h, lysate of MIA PaCa-2 cells with exogenous FLAG-CUL5; endogenous prey detected by immunoblot.
The target of assay [12] is FLAG-CUL5-N (aa 1-400) (UniProt Q93034). Briefly: co-IP; FLAG antibody-conjugated beads, 3 h, lysates of transfected HEK293 cells (50 mM Tris pH 7.5, 0.15 M NaCl, 1% NP-40, 0.1% SDS, 0.5% sodium deoxycholate, 1 mM EDTA, 1 mM DTT); endogenous prey detected by immunoblot; in some panels 1 µM MLN4924 for 12 h, siRNA to APC11, or co-transfected MYC-CUL5.
Assay [13] deals with FLAG-CUL5-ΔSAG (deletion of aa 565-582) (UniProt Q93034). Described as above.
In assay [14] the target is endogenous CUL5 (human (endogenous in HEK293, MIA PaCa-2, A549, Hep3B, PLC/PRF/5)) (UniProt Q93034). In words: co-IP; endogenous IP with anti-CUL5 antibody (normal mouse IgG as control) and protein G sepharose from lysates of MIA PaCa-2, A549, Hep3B and PLC/PRF/5 cells; in some panels siRNA to APC11 or SAG for 72 h. This is another data set of the same source.
The target of assay [15] is FLAG-CUL5 (UniProt Q93034). In words: co-IP; FLAG antibody-conjugated beads, 3 h, lysates of transfected HEK293 cells (50 mM Tris pH 7.5, 0.15 M NaCl, 1% NP-40, 0.1% SDS, 0.5% sodium deoxycholate, 1 mM EDTA, 1 mM DTT); endogenous prey detected by immunoblot; in some panels 1 µM MLN4924 for 12 h, siRNA to APC11, or co-transfected MYC-CUL5. This is another data set of the same source.

Like-named read-outs stand apart in the source and are kept apart here. These are yes or no findings as the source states them, for the method shown. In cells and extracts the contact can be indirect. Some binding calls cover weakened binding; strength is not graded here.

For “endogenous SAG (from UniProt Q9UBF6 1-113)”, the binding entry in [1], in assay [2] and in [3] was “binds” in each case.
Turning to “neddylated CUL5 (from UniProt Q93034 1-780; Q15843 1-76)”, the binding result in assay [4] is “binds”.
In the case of “endogenous CUL5 (from UniProt Q93034 1-780)”, the binding entry in assay [5] was “binds”; in assay [6], “binds”; in assay [7] it was “binds weakly”; in assay [8], “binds weakly”; in [9], “binds weakly”; in [10] it was “binds weakly”. Moreover, the binding result in assay [4] is listed as “binds”.
As to “endogenous COPS5 (from UniProt Q92905 1-334)”, the binding entry in assay [2] is “binds”.
As for “endogenous CAND1 (from UniProt Q86VP6 1-1230)”, the binding entry in [2] was “binds”.
Turning to “endogenous APC11 (from UniProt Q9NYG5 1-84)”, the binding entry is on record as “binds” in assay [11]; “binds” in assay [1]; “binds” in assay [2]; “no binding” in [3]; “no binding” in [12]; “no binding” in assay [13].

B1: endogenous UBE2F (enzyme, UniProt Q969M7 1-185)
chain: MLTLASKLKRDDGLKGSRTAATASDSTRRVSVRDKLLVKEVAELEANLPCTCKVHFPDPNKLHCFQLTVTPDEGYYQGGKFQFETEVPDAYNMVPPKVKCLTKIWHPNITETGEICLSLLREHSIDGTGWAPTRTLKDVVWGLNSLFTDLLNFDDPLNIEAAEHHLRDKEDFRNKVDDYIKRYAR
Turning to B1, the binding entry in assay [14] and in assay [15] was “binds” in each case.

Values taken from article PMC12806337.
